This is one part of the list. Viral Rep nickase domains cut single-stranded DNA in vitro at 3 µM enzyme and 37 °C for 1 h; the strands have 90 letters, of which the middle is given. The score is log2 (uncut reads / reads without enzyme); uncut sequences lie near 0, cut ones below; no hit call is given. Because reads are shares of a total, they shift together; uncut strands gain when others are lost, and binding without cutting may add a little.
Columns and labels:
Assay in all cases: uncleaved DNA left, log2 of reads against the no-enzyme library (log2 ratio); higher = less cleavage (more negative = more Rep cleavage of the k-mer); sequences stand for … in CTCGTCCG…ACCGGAGA
[1] = system: T1, Rep nickase domain of Muscovy duck circovirus
T1 sequence (Rep 1-111, printed without the tag): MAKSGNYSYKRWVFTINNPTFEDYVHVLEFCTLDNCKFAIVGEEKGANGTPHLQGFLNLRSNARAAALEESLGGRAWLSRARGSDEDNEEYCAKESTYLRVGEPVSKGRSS
Experimental: (§1)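 A pool of 90-nt single-stranded DNAs with seven random bases just before the constant AC of the nick site (name = the seven bases) was cut by 3 µM recombinant His6-SUMO-tagged Rep nickase domain (300 nM DNA, 50 mM HEPES pH 8.0, 50 mM NaCl, 1 mM MnCl2, 1 h, 37 °C, three replicates). Uncut DNA was amplified and sequenced.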

[2] = system: T2, Rep nickase domain of banana bunchy top virus
T2 sequence (Rep 1-94, printed without the tag): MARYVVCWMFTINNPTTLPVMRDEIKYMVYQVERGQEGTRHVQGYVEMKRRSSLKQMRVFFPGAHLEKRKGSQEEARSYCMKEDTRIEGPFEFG
Experimental: as §1

[3] = system: T3, Rep nickase domain of cabbage leaf curl virus
T3 sequence (Rep 1-116, printed without the tag): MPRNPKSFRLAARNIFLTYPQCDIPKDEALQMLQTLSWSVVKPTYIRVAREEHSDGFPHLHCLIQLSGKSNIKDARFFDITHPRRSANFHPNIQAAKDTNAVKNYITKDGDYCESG
Experimental: as §1

[4] = system: T4, Rep nickase domain of chickpea chlorotic dwarf virus
T4 sequence (Rep 1-124, printed without the tag): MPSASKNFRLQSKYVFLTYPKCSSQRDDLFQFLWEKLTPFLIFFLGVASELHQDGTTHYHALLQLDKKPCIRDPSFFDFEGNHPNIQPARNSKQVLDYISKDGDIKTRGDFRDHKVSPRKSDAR
Experimental: as §1

[5] = system: T5, Rep nickase domain of faba bean necrotic yellows virus
T5 sequence (Rep 1-98, printed without the tag): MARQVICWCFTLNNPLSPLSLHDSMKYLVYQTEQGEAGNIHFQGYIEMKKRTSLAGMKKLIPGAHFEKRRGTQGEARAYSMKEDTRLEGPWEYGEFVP
Experimental: as §1

[6] = system: T6, Rep nickase domain of maize striate mosaic virus
T6 sequence (Rep 1-117, printed without the tag): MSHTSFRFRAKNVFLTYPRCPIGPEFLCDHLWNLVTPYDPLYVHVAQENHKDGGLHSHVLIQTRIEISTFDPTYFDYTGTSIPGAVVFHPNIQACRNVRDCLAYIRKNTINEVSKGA
Experimental: as §1

[7] = system: T7, Rep nickase domain of porcine circovirus 2
T7 sequence (Rep 2-116, printed without the tag): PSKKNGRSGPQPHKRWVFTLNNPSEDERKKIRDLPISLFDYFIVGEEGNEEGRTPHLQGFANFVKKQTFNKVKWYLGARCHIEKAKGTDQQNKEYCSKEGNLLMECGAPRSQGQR
Experimental: as §1

[8] = system: T8, Rep nickase domain of tomato golden mosaic virus
T8 sequence (Rep 1-124, printed without the tag): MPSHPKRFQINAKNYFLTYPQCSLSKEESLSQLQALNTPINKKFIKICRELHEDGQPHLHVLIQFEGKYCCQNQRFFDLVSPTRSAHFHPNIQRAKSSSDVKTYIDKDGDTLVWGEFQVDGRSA
Experimental: as §1

[9] = system: T9, Rep nickase domain of tomato yellow leaf curl virus
T9 sequence (Rep 1-136, printed without the tag): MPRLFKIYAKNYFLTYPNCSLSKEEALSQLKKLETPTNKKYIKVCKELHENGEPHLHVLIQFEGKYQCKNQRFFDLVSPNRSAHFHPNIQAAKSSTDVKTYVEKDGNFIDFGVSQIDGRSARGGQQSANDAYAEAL
Experimental: as §1

[10] = system: T10, Rep nickase domain of wheat dwarf virus
T10 sequence (Rep 1-137, printed without the tag): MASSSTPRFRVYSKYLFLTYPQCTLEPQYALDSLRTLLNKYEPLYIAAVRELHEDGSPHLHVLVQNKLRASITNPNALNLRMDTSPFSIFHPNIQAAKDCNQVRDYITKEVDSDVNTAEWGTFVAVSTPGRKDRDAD
Experimental: as §1

Sequence	uncleaved DNA left (log2) [1]	uncleaved DNA left (log2) [2]	uncleaved DNA left (log2) [3]	uncleaved DNA left (log2) [4]	uncleaved DNA left (log2) [5]	uncleaved DNA left (log2) [6]	uncleaved DNA left (log2) [7]	uncleaved DNA left (log2) [8]	uncleaved DNA left (log2) [9]	uncleaved DNA left (log2) [10]
CATACCT	-0.0682	-1.58	-0.494	-2.83	0.0301	-0.754	-1.7	-0.14	-0.097	-0.174
GCGGTTT	0.0267	0.0494	0.639	1.16	-0.231	1.89	0.0945	0.1	0.142	0.122
AACCATC	-0.203	-0.143	-0.187	-0.614	-0.146	-0.913	-0.354	-0.114	-0.0709	-0.0656
GCTGTGA	0.0309	-0.126	-0.158	0.0221	-0.133	-0.465	0.0555	0.0666	0.0641	-0.0883
GAACCAA	-0.0198	0.0371	0.202	0.174	0.0247	0.642	-0.0273	0.0708	0.0591	0.18
AGAGAAT	0.0269	0.0652	0.113	0.888	-0.0597	1.48	0.0779	0.157	-0.035	0.153
AATCCAG	0.0434	0.0313	-0.673	-0.487	0.0304	-1.11	0.095	-0.0428	0.0913	-0.0978
CTCGTCC	0.0578	-0.0379	0.312	0.742	-0.0316	1.12	-0.178	0.0537	0.0486	-0.031
TTCTGGG	-0.0465	-0.097	-0.275	-0.369	-0.0186	-0.625	0.0372	-0.106	0.00158	-0.016
TATTTGA	-1.68	-0.0166	-0.00395	-0.499	0.0982	-0.937	-0.431	0.0109	0.113	0.0323
CTTGCGC	-0.0187	-0.0392	-0.679	-0.204	0.203	-0.65	0.145	-0.0861	0.0601	-0.12
GATTCCC	-1.17	-0.198	0.251	0.304	-0.508	0.996	-2.92	-0.0404	0.0595	0.125
CGTCCGT	0.0262	0.0695	-0.0175	0.117	-0.0279	0.312	-0.000252	-0.053	0.0916	-0.0141
GAGAGCA	0.0986	0.081	0.24	0.402	0.0212	0.285	-1.84	0.0556	0.178	0.147
AGGAACT	0.0338	0.183	0.25	0.0142	0.0843	1.33	-0.00826	0.0717	0.119	0.124
TAGTTAG	0.0466	-0.0864	-0.776	-0.778	0.0651	-1.29	-0.376	0.0151	-0.0569	-0.204
AAGAGTG	-0.0125	0.081	-0.11	0.169	0.0954	0.248	0.142	0.102	-0.0614	-0.00205
GGAATGC	-0.015	0.115	0.417	1.07	0.0703	0.772	0.243	0.0669	0.113	0.108
ATAAATA	0.17	0.237	0.0687	-1.52	0.23	-0.521	0.0968	0.255	0.181	0.2
GTGTTTG	-0.0209	0.0143	0.012	0.295	-0.0389	0.0807	0.0485	-0.0452	-0.0367	-0.0802

Sequence	uncleaved DNA left (log2) [1]	uncleaved DNA left (log2) [2]	uncleaved DNA left (log2) [3]	uncleaved DNA left (log2) [4]	uncleaved DNA left (log2) [5]	uncleaved DNA left (log2) [6]	uncleaved DNA left (log2) [7]	uncleaved DNA left (log2) [8]	uncleaved DNA left (log2) [9]	uncleaved DNA left (log2) [10]
CTTCGCC	-0.0263	-0.0867	-0.136	-0.415	0.00685	-0.805	-0.11	-0.24	-0.11	-0.152
TATAATC	0.0381	0.0934	0.11	-0.313	0.184	-0.455	0.0722	0.0295	0.19	0.257
TCTTTGA	-0.0424	0.0542	-0.00782	-0.294	0.0403	-0.741	0.012	-0.0348	0.0262	0.0295
CCAGCGT	-0.0133	-0.015	-0.824	-0.532	0.0798	-0.882	0.00504	0.0515	-0.00843	-0.128
CGTGGTC	-0.0477	-0.0302	0.254	0.363	0.107	0.0952	0.101	-0.0306	-0.0427	-0.0137
TGGTGGC	-0.0653	-0.168	0.376	0.531	-0.0158	0.487	0.151	-0.00466	-0.0437	-0.0123
TATGGAC	0.0592	0.136	0.478	1.27	-0.0164	1.27	0.169	0.115	0.0808	0.176
GTTGGAG	-0.0725	-0.0753	-0.103	0.00518	-0.035	-0.574	0.0631	-0.0161	-0.0104	-0.0695
ACGGATT	-0.14	-0.221	-0.0765	-0.736	0.000931	0.607	-0.142	-0.00653	-0.204	-0.0834
AAGCCAA	-0.0416	-0.0197	0.0996	-0.447	-0.0625	-0.196	-0.103	-0.0158	-0.0281	0.0859
GCATCAC	0.0418	0.143	0.00762	0.179	-0.0697	-0.249	0.208	0.0561	0.0432	0.104
CTCCGCT	-0.116	-0.131	-0.202	-0.724	-0.231	-0.68	-0.102	-0.0499	-0.00866	-0.218
TTTTGTC	-0.0947	-0.322	-0.237	-0.62	-0.15	-1.22	-0.144	-0.197	-0.181	-0.208
AATTCTG	-0.117	-0.0264	0.0318	0.482	-0.0644	0.543	-0.00509	0.0247	-0.124	0.031
AAATGGA	-0.0399	-0.00649	-0.0888	0.181	0.0681	-0.155	-0.236	-0.00883	-0.136	0.000618
CGGTGAT	0.224	0.129	0.401	1.38	-0.0598	1.92	-0.625	0.237	0.0952	0.0984
CTACTAG	0.0302	-0.0836	-0.862	-1.23	0.0682	-1.13	0.0869	-0.00782	0.095	-0.0496
GTAACCA	0.00394	0.0188	0.185	0.502	-0.0854	1.5	-0.0809	0.0174	0.0588	0.112
ACTTTAT	-0.0871	-0.0841	-0.0378	-1.03	0.158	-0.681	-0.524	0.0779	-0.0407	0.055
CTAATTC	-0.106	-0.113	0.32	-0.109	-0.0543	-0.935	-0.0729	-0.00775	-0.0312	0.022

Sequence	uncleaved DNA left (log2) [1]	uncleaved DNA left (log2) [2]	uncleaved DNA left (log2) [3]	uncleaved DNA left (log2) [4]	uncleaved DNA left (log2) [5]	uncleaved DNA left (log2) [6]	uncleaved DNA left (log2) [7]	uncleaved DNA left (log2) [8]	uncleaved DNA left (log2) [9]	uncleaved DNA left (log2) [10]
TGGCATA	0.0261	-0.00768	0.562	1.35	-0.0916	1.68	0.0183	-0.063	-0.012	0.0595
TACCTAC	0.0601	-0.0759	-0.299	-2.09	0.0919	-0.648	-0.776	-0.0695	0.00606	0.0569
TAGGAGC	0.0163	0.0418	0.153	0.43	0.0165	0.145	0.0654	0.141	0.0228	0.021
ATAGCGT	-0.0895	-0.173	-1.03	-0.451	-0.165	-0.979	0.0151	-0.267	-0.104	-0.155
ATGTCGG	0.124	0.0749	0.463	1.13	-0.0514	1.26	0.184	0.0744	-0.0989	0.0657
TAGATAC	-0.0799	-0.0946	-0.0922	-0.571	-0.137	-0.697	-0.221	-0.0555	-0.0885	-0.13
TGTCGTC	0.033	0.0661	0.0939	0.132	-0.0548	-0.204	0.0978	0.00944	-0.0067	-0.0319
ACACTAC	0.0138	0.0978	-0.384	-2.03	0.104	-0.831	0.165	-0.00673	-0.000648	-0.0862
CATATCC	0.069	0.158	0.0457	-0.0892	-0.0563	-0.485	0.051	0.0265	0.0901	0.149
CCGTACC	-0.171	-0.201	0.104	-0.808	-0.0732	-0.347	-0.728	-0.209	-0.131	-0.178
TGCTACC	-2.52	-0.154	-2.15	-1.96	-0.93	-0.304	-3.06	-1.34	-0.139	-2.14
GAGCGTA	-0.0469	-0.0568	-0.269	-0.187	0.0592	-0.0191	-0.531	-0.0774	-0.117	-0.0244
CAAGCCT	-0.104	-0.245	-0.986	-2.71	-0.13	-0.497	-0.277	-0.261	-0.209	-0.215
CCTGTTT	-0.109	-0.105	-0.0201	-2.03	-0.113	-0.476	-0.551	-0.0602	-0.177	-0.14
TTTTCTA	-0.219	-0.0997	0.119	-0.849	-0.131	0.161	-0.349	-0.0496	-0.0936	-0.138
AGACAAA	0.0299	0.0745	0.653	1.36	0.1	1.41	0.149	0.0425	0.0185	0.155
TAGGTGA	0.000351	0.0109	0.136	0.199	0.0351	0.0986	0.0214	0.139	-0.00872	-0.0601
CCAGGAG	0.251	0.23	-0.234	0.476	0.22	-0.568	0.37	0.379	0.13	0.266
GCTAGTT	-0.0189	0.0821	0.238	-0.25	0.0527	0.436	0.0994	0.0709	0.0433	0.0422
GCTGTAA	0.031	0.0991	0.133	0.451	-0.059	0.843	0.109	-0.0119	0.0552	-0.0639

From the supplement of paper PMC7826260
